Drawing on PubChem BioAssay AID1240 (Sanford-Burnham Center for Chemical Genomics, 2008), this text covers displacement for 109 molecules.

Each structure is given as a SMILES string. Among all 50,000 compounds or so, about 800 (1.6%) showed an effect of 50% or more. The list shows a part of the results.

The assay deals with Bcl-2-like protein 10 (Homo sapiens) (UniProt Q9HD36). Put plainly: TR3 peptide-Bcl-B binding displacers, biochemical primary FP assay, phenotype converters (AID 1240).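 Note: 0% = Bcl-B with tracer peptide and DMSO and 100% = tracer peptide lacking Bcl-B.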 The settings on record: GST-Bcl-B / FITC-TR3 peptide fluorescence polarization; stronger effect = higher value; compound at 3.75 mg/L. On the technique in general: Fluorescence polarisation rises when a labelled molecule tumbles more slowly, as on binding a larger partner.
Chain of UniProt Q9HD36 (Q9HD36 whole entry, looked up): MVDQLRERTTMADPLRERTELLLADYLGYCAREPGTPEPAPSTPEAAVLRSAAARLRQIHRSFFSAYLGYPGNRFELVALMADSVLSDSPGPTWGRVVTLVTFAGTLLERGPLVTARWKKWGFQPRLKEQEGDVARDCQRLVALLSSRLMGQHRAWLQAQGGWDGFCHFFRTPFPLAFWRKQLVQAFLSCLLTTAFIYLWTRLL
Turning to `COc1ccc(OC(C)C(=O)Nc2ccccc2C(N)=O)cc1` (centres undefined), the displacement turned out to be 7.8%.

Turning to `COc1ccccc1OCCCn1ccnc1`, the displacement is -7.3%.

Consider `O=C(COc1ccc(Cl)cc1Cl)NNC(=O)C1COc2ccccc2O1` (centres undefined), for which the displacement is -4.7%.

On to `CCC(=O)Oc1ccc2c(C)c(Cl)c(=O)oc2c1`, for which the displacement worked out at 6.6%.

As for `O=C(Cc1ccc(Cl)cc1)Nc1ccc(Cl)cn1`, the displacement was found to be 8.8%.

For the molecule `C/C(=N\NC(=O)C1(C)CC1(Br)Br)c1ccc(Cl)s1` (centres undefined), the displacement is -3.8%.

As to `COCCNC(=O)CN(c1ccc(F)cc1)S(=O)(=O)c1ccccc1`, the displacement is -0.6%.

On to `Cc1ccc(S(=O)(=O)Nc2c(C)n(C)n(-c3ccccc3)c2=O)cc1[N+](=O)[O-]`, for which the displacement was -9.4%.

Consider `COc1cc(/C=C2\C(=O)NC(=S)N(c3ccc(Cl)cc3)C2=O)ccc1OCc1ccc(C(=O)O)cc1`, for which the displacement was found to be 10.1%.

`O=[N+]([O-])c1cccc2c1NC(c1ccc(Cl)cc1)C1CC=CC21` (centres undefined): the displacement was 7.5%.

With `COc1ccc(NS(=O)(=O)c2ccc(C(C)C)cc2)cc1`, the displacement was found to be 1.8%.

`CCOc1ccc2nc(SCC(=O)NC(C)c3ccccc3)sc2c1` (centres undefined): the displacement was determined as 1.7%.

Consider `Cc1cc(/C=C2\C(=O)NC(=O)N(c3ccccc3F)C2=O)c(C)n1-c1cccc([N+](=O)[O-])c1`, for which the displacement was 8.6%.

On to `O=C1c2cccc3cccc(c23)C(=O)N1CCC(=O)n1cnc2ccccc21`, for which the displacement is -7.7%.

`CNC(=O)/C(C#N)=C/c1ccc([N+](=O)[O-])o1`: the displacement came to 39.4%.

With `CCOC(=O)C1C(=O)C=C(/C=C/c2ccco2)CC1c1ccccc1` (centres undefined), the displacement worked out at 0.3%.

Consider `CC1C(=O)CC(c2ccc(Cl)cc2)NC1c1ccc(Cl)cc1` (centres undefined), for which the displacement is 1.8%.

Turning to `c1ccc2[nH]c(CSc3nc4ccccc4s3)nc2c1`, the displacement is -18.8%.

On to `O=C(O)c1cc(NC(=O)c2ccc(I)cc2)cc(C(=O)O)c1`, for which the displacement was -5.9%.

Turning to `CCc1c(C)nc2cc(-c3cccc(F)c3)[nH]n2c1=O`, the displacement was determined as 8.2%.

Take `Cc1ccc(N2C(=O)NC(=O)/C(=C/c3cccc(Cl)c3)C2=O)cc1`: the displacement is -8.8%.

Consider `CCc1ccc(-c2nc(-c3ccccc3C)no2)cc1`, for which the displacement was -3.7%.

`CCOC(=O)N1N=C(C)CC1(O)c1ccc(Br)cc1` (centres undefined): the displacement is -8.5%.

With `CCOC(=O)c1ccc(-c2ccc(C(=O)Nc3ccc(-c4nc5ccccc5o4)cc3)o2)cc1`, the displacement worked out at 20.2%.

For `Fc1ccc(OCCCn2ccnc2)cc1`, the displacement amounted to 16.9%.

Turning to `CCCCS(=O)CC(O)COC(C)C` (centres undefined), the displacement is -1.5%.

Take `COc1ccc(C2CC(C(F)(F)F)n3nc(C(=O)NCc4cccs4)cc3N2)cc1OC` (centres undefined): the displacement turned out to be 7.1%.

As for `CC1(C)CC(=O)C2=C(C1)Nc1ccccc1NC2c1cccc(O)c1O` (centres undefined), the displacement is -0.4%.

For the molecule `O=C(Nc1nc(-c2ccccc2)cs1)C(c1ccccc1)c1ccccc1`, the displacement was determined as 1.4%.

In the case of `O=C(Nc1ccc(-c2nc3ccccc3c(=O)o2)cc1)c1ccccc1F`, the displacement amounted to 9.7%.

As for `O=C(O)c1ccc(S(=O)(=O)n2cnc3ccccc32)cc1`, the displacement stood at 1.8%.

For `Clc1cccc(-n2ncnc2-c2cccc(Br)c2)c1`, the displacement was -4%.

On to `CCCOc1ccc(/C=N/N(C)c2cc(C)nc(-c3ccccc3O)n2)c(O)c1`, for which the displacement was -2.1%.

Regarding `CCOC(=O)CC(=O)c1cc(C(C)=O)c(Nc2ccccc2)s1`, the displacement was -2.8%.

With `O=C(Cc1ccc(Br)cc1)Nc1ccc(Cl)c(Cl)c1`, the displacement was 19.9%.

As to `COC(=O)C1=C(C(=O)OC)C2C=CC1C1C=CC21` (centres undefined), the displacement was determined as 1.4%.

Consider `CC1=C(C#N)C(c2ccccc2F)C2=C(CCCC2=O)N1` (centres undefined), for which the displacement was -3.4%.

`CCc1ccc(NC(=O)C2CC(=O)N(c3ccccc3)C2)cc1` (centres undefined): the displacement was -6.2%.

Take `CCOC(=O)C1CCN(C(=O)/C=C/c2cccc([N+](=O)[O-])c2)CC1`: the displacement came out at 4.4%.

As for `O=C(/C=C/c1ccc(-c2ccccc2[N+](=O)[O-])o1)Nc1ccc(NC(=O)c2ccco2)cc1`, the displacement is -0.2%.

Consider `CC(C)(C)C(=O)Nc1ccc(C(=O)Nc2cccc(O)c2)cc1`, for which the displacement was -2.1%.

Regarding `COc1ccc(CNC(=O)c2ccccc2N(Cc2ccccc2)S(=O)(=O)c2ccc(C)cc2)cc1`, the displacement is -1.8%.

Turning to `CCC(C(C)=O)C(=O)Nc1ccccc1` (centres undefined), the displacement amounted to 14.9%.

Take `COc1ccccc1NC(=O)c1cc(Nc2ccccc2)nc2ccccc12`: the displacement amounted to 13.2%.

Regarding `O=C(NCCc1ccccc1)/C(=C/c1ccc(-c2cccc([N+](=O)[O-])c2)o1)NC(=O)c1ccccc1`, the displacement stood at 2.5%.

As for `CCCCN(CC)Cc1c(C)[nH]c2ccc(C)cc2c1=O`, the displacement is 10.5%.

Turning to `Cc1ccc(NC(=O)C2CCCN2C(=O)C(C)(C)C)cc1` (centres undefined), the displacement is 3.9%.

`Cc1onc(-c2ccccc2)c1C(=O)NCCNc1c(Cl)cccc1[N+](=O)[O-]`: the displacement was -1.3%.

For the molecule `NC(=O)c1ccccc1NC(=O)c1ccc(Cl)cc1[N+](=O)[O-]`, the displacement was -7.6%.

`COC(=O)c1c(NC(=O)c2cncc(Br)c2)sc2c1CCC(C)C2` (centres undefined): the displacement amounted to 15.9%.

For the molecule `O=C(CN1CCCCC1)Nc1ccc(I)cc1`, the displacement was -3.9%.

As to `COc1cc([N+](=O)[O-])ccc1-c1ccc(CO)o1`, the displacement amounted to 8%.

Regarding `CC1=NNC(=O)C1CC(=O)N/N=C/c1c(O)ccc2ccccc12` (centres undefined), the displacement is -20.7%.

As for `CNc1nc2nonc2nc1Nc1ccc(C)c(C)c1`, the displacement came to 15%.

As for `O=C1CC(=O)N(Cc2ccccc2)CCN1Cc1ccccc1`, the displacement worked out at 4.9%.

For the molecule `Nc1ccc2nc(SCc3ccc(Cl)cc3)sc2c1`, the displacement came out at 4.4%.

Regarding `COc1cc(Cl)cc(/C=C2/C(=O)NC(=O)N(c3cccc(C)c3)C2=O)c1O`, the displacement is -9.5%.

`CC(C)(C)OC(=O)COc1ccc2cc(-c3nc4ccccc4s3)c(=O)oc2c1`: the displacement was 92%.

Take `Cc1cc(NC(=O)Nc2cccc(F)c2)no1`: the displacement is -5.8%.

Consider `O=[N+]([O-])c1cccc(S(=O)(=O)Nc2ccc(Cl)c(Cl)c2)c1`, for which the displacement is -6%.

On to `Cc1cc(Cl)ccc1OCC(=O)NCC1CCCO1` (centres undefined), for which the displacement turned out to be 1.4%.

For `C=CCSc1nc2ccccc2n1C(=O)CCCN1C(=O)c2cccc3cccc(c23)C1=O`, the displacement is -13.4%.

`COc1cc(OC)cc(C(=O)N2CCN(Cc3ccccn3)CC2)c1`: the displacement is -20.2%.

In the case of `CC(C)(C)NC(=O)C(=O)N/N=C/c1ccc(Br)cc1`, the displacement stood at 1.6%.

On to `Brc1cc2c(cc1/C=N/Nc1nc(N3CCOCC3)nc(N3CCOCC3)n1)OCO2`, for which the displacement is 20.2%.

As to `COC(=O)c1cc(NC(=O)c2ccc(OC)c(Br)c2)cc(C(=O)OC)c1`, the displacement is 1.7%.

On to `CN1CCN(c2nc(-c3ccncc3)nc3ccccc23)CC1`, for which the displacement is 8.7%.

Consider `COc1ccc(NC(=O)c2cnn3c2NC(c2ccc(F)cc2)CC3C(F)(F)F)c(OC)c1` (centres undefined), for which the displacement was -1.1%.

Turning to `COc1cc(NC(=O)c2ccc(Cl)cc2)c(Cl)cc1NC(=O)c1cccs1`, the displacement is -5.7%.

In the case of `CC(=O)NS(=O)(=O)c1ccc(NC(=O)/C=C/c2ccc(C(C)(C)C)cc2)cc1`, the displacement was -0.1%.

As to `O=C(Nc1nc(-c2ccc([N+](=O)[O-])cc2)cs1)c1ccccc1F`, the displacement turned out to be 113%.

Consider `COc1ccc(/C=N/NC(=O)c2cccc([N+](=O)[O-])c2)cc1Br`, for which the displacement came out at 1.2%.

As for `CS(=O)(=O)N(CC(=O)N1CCCC1)c1ccc(Oc2ccccc2)cc1`, the displacement was -0.7%.

On to `Cc1cc(C)nc(SCC(=O)N2c3ccccc3Sc3ccc(C(F)(F)F)cc32)n1`, for which the displacement stood at 6.3%.

For the molecule `CNC(=O)c1c(-c2ccccc2)oc2ccc(OC)cc12`, the displacement amounted to 6.7%.

On to `COc1ccc(C(=O)N/N=C/c2ccc(N3CCOCC3)o2)cc1OC`, for which the displacement was -0.4%.

As for `CCOc1ccccc1NC(=O)c1c(NC(=O)c2ccccc2Br)sc2c1CCC2`, the displacement is -7.2%.

`Cc1ccc(S(=O)(=O)NC(=O)c2ccccc2)cc1C(C)C`: the displacement came out at 13.3%.

Regarding `CCN(CC)C(=O)c1sc(NC(=O)/C=C/C(=O)O)c(C(=O)OC)c1C`, the displacement was -0.2%.

In the case of `O=C1C2CCCCC2C(=O)N1c1ccc2[nH]c(=S)sc2c1` (centres undefined), the displacement is -28.4%.

For the molecule `COc1ccc(C(NC(=O)/C=C\c2cccc([N+](=O)[O-])c2)c2ccc(OC)c(OC)c2)cc1OC`, the displacement is -3%.

On to `Cc1cc2nc(-c3ccc(NC(=O)c4cccnc4)cc3O)oc2cc1C`, for which the displacement is -8.9%.

Take `Cc1cc(=O)oc2cc3cc(C)n(C)c3cc12`: the displacement came to 9.3%.

Consider `CCCCCc1nnc(NC(=O)CCCC)s1`, for which the displacement is -3.5%.

Take `CC(C)(C)c1cc(N2C(=O)C(=O)/C(=C(\O)c3ccccc3)C2c2ccccc2F)no1` (centres undefined): the displacement was determined as 0.4%.

Take `CN1C(=O)/C(=C2\SC(=S)N(c3ccccc3)C2=O)c2ccccc21`: the displacement was -6.8%.

In the case of `O=C(Nc1ncccc1Cl)c1cccc(Cl)c1`, the displacement was -0.6%.

Turning to `O=C(Nc1ccc(-c2nc3ccccc3s2)cc1)c1cc(Br)ccc1Cl`, the displacement is -8.4%.

With `NC(=O)CSc1nc2ccc(NC(=O)c3ccccc3)cc2s1`, the displacement was -5.8%.

For the molecule `O=C(/C=C/c1ccco1)N1CCN(C/C=C/c2ccccc2)CC1`, the displacement was -3.8%.

Take `O=C(CSc1nnnn1-c1ccccc1)Nc1cccc([N+](=O)[O-])c1`: the displacement was -0.6%.

Consider `CC(C)(C)c1ccc(S(=O)(=O)Nc2cc(Cl)ccc2Cl)cc1`, for which the displacement turned out to be 12.4%.

Turning to `COc1ccc(Cl)cc1NC(=O)NS(=O)(=O)c1ccc(C)cc1`, the displacement was found to be 16.9%.

On to `O=C(Nc1ccccc1)c1ccc(S(=O)(=O)N2CCCc3ccccc32)cc1`, for which the displacement was -7.8%.

As for `CCOc1cc(/C=C(/C#N)C(N)=O)cc(Br)c1O`, the displacement is -101%.

Consider `COc1ccccc1CC(=O)N1CCN(c2ccc(F)cc2)CC1`, for which the displacement amounted to 9.5%.

On to `COc1ccccc1C(=O)N1CCN(C(=O)COc2ccc(Cl)cc2)CC1`, for which the displacement was 15%.

In the case of `CS(=O)(=O)N(CC(=O)Nc1ccccc1)c1ccc(Br)cc1`, the displacement was -4.4%.

Take `COc1ccc(N=Cc2ccc(Br)s2)c([N+](=O)[O-])c1`: the displacement is -0.7%.

As for `CCN=C1SC(CC(=O)Nc2cccc(C(F)(F)F)c2)C(=O)N1CC` (centres undefined), the displacement is -3.3%.

As for `CN1C(=O)C(=Cc2cn(CC(=O)Nc3ccccc3)c3ccccc23)C(=O)N(C)C1=O`, the displacement was -6.8%.

With `CCOC(=O)C1=C(C)NC(=O)NC1c1cc(OC)c(OC)c(OC)c1` (centres undefined), the displacement worked out at 9.3%.

In the case of `CCCOc1ccccc1NC(=O)CC1Nc2cc(C)c(C)cc2NC1=O` (centres undefined), the displacement is -11.4%.

Turning to `CCC1=NN2C(=N)/C(=C\c3ccc(N(CC)CC)cc3)C(=O)N=C2S1`, the displacement is -67.5%.

As for `CC1=C(C(=O)Nc2ccc(Br)cc2)C(c2ccc(F)cc2)NC(=S)N1` (centres undefined), the displacement is 12.5%.

As for `Cc1cc(=O)oc2ccc(OCC(=O)Nc3ccc(S(=O)(=O)O)cc3)cc12`, the displacement came out at 0.4%.

As to `COc1ccc(S(=O)(=O)N(CCO)Cc2ccccc2)cc1`, the displacement is -15.3%.

Consider `CCOc1ccc(NC(=O)c2c(-c3ccccc3Cl)noc2C)c([N+](=O)[O-])c1`, for which the displacement is -6.9%.

For the molecule `O=[N+]([O-])c1ccc(N2CCN(S(=O)(=O)c3ccc(Cl)cc3)CC2)cc1N1CCOCC1`, the displacement is 9.3%.
